Test results published in PubChem BioAssay AID1345083 (National Center for Advancing Translational Sciences (NCATS), 2018).
About 6,200 (6.6%) of roughly 94,000 compounds were called active. Inconclusive results, whose numbers are uncertain, are shown with a selection of clear calls. Calls come from the whole dose curve; as a rule, active = well fitted inhibition curve with a large enough effect; inconclusive = small, poorly fitted or top-dose-only effect; inactive = flat fitted curve, though single readings scatter. Potencies beside an inconclusive call are fits to weak or partial responses and may not hold up.

Test: Cytotoxic Profiling in HEK 293 Cell Line of Diverse Libraries Using Quantitative High-Throughput Screening; note: nearly all actives have a fitted effect of over 60% in size
Conditions: HEK 293 viability, ATP luminescence (CellTiter-Glo), 48-72 h; series mostly up to 115 µM
Method in brief: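 ATP-coupled CellTiter-Glo luminescence served as viability read-out, recorded 10 min after reagent addition at room temperature. HEK 293 cells, 250 cells/well, had been incubated with pintool-transferred compound for 48 or 72 hr at 37 degree Celsius.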
Potency is the fitted concentration of half-maximal effect; tags give direction and shape of the fitted curve.

SMILES	Potency
CC(=O)N1[C@H]2CC[C@@H]1c1cnc(-c3ccccc3)nc1C2	inactive
COc1ccccc1N1CCN(C[C@H]2CN3CC[C@H]2C[C@@H]3CNC(=O)Nc2cccc(SC)c2)CC1	inconclusive: 50.1 µM [inhibitor, partial curve, poor fit]
COc1ccc(CCC(=O)N2[C@H]3CC[C@@H]2c2cnc(C)nc2C3)cc1	inactive
COc1ccccc1NC(=O)Nc1ccc2n(c1=O)C[C@H]1C[C@@H]2CN(C(=O)C(=O)O)C1	inactive
COCC(=O)N1CCC2(CC1)C(=O)Nc1cc(Oc3cccc(N(C)C)c3)c(OC)cc12	inconclusive: 112 µM [inhibitor, partial curve, poor fit]
CC(C)(C)CN1CCC2(CN[S+](=O)([O-])c3cccnc3O2)C1 (stereo not drawn)	inactive
O=C(c1ccc2c(c1)CCO2)N1C[C@@H](c2ccc(F)cc2)[C@@H]2[C@H]1C1CCN2CC1	inactive
COc1cc2c(cc1OCc1ccccc1)NC(=O)C21CCN(Cc2nccn2C)CC1	inconclusive: 100 µM [inhibitor, partial curve]
C=C[C@H]1CN2CC[C@H]1C[C@@H]2CNC(=O)Nc1cccc(C(F)(F)F)c1	active: 100 µM
Cn1cc(CN2CCOC[C@H](O)C2)c2ccccc21	active: 63.1 µM
COc1cc2c(cc1OC1CCCC1)NC(=O)C21CCN(c2ncc(C(C)C)cn2)CC1	inconclusive: 79.4 µM [inhibitor, partial curve]
CN1C[C@H]2CN(Cc3cnn(C)c3)CCN2C1=O	inactive
CC[C@H]1CN2CC[C@H]1C[C@@H]2CNS(=O)(=O)c1cccs1	inactive
CC(=O)c1ccc(NC(=O)NC[C@H]2C[C@@H]3CCN2C[C@@H]3c2cc(-c3cccs3)nc(C)n2)cc1	active: 89.1 µM
O=[S+]1([O-])NCC2(CCN(Cc3ccoc3)C2)Oc2ncccc21 (stereo not drawn)	inactive
COc1ccc(C2=NOC3(CCN(Cc4cccnc4)C3)C2)cc1 (stereo not drawn)	inconclusive: 44.7 µM [inhibitor, partial curve, poor fit]
O=C(Cc1cccnc1)N1[C@H]2CC[C@@H]1c1cnc(-c3ccc(F)cc3)nc1C2	inconclusive: 89.1 µM [inhibitor, single point]
CCOC(=O)[C@H]1CN(C(=O)c2ccc(SC)cc2)[C@]2(C)C(=O)N(C)c3ccccc3[C@H]12	inconclusive: 39.8 µM [inhibitor, partial curve, poor fit]
O=C(CCc1ccccc1)N1[C@H]2CC[C@@H]1c1cnc(-c3ccc(F)cc3)nc1C2	inconclusive: 50.1 µM [inhibitor, partial curve, poor fit]
O=S(=O)(NC[C@H]1C[C@@H]2CCN1C[C@@H]2CN1CCc2ccccc21)c1ccc(Cl)cc1	active: 20 µM
CCOC(=O)[C@@H]1[C@H]2c3ccccc3N(CCOC)C(=O)[C@H]2N(C(=O)C2CCC2)[C@@H]1c1ccccc1	active: 50.1 µM
COCCN1C[C@H]2CN(CC3CC3)CCN2C1=O	inactive

SMILES	Potency
COc1cc2c(cc1OCc1ccccc1)NC(=O)C21CCN(CC2CC2)CC1	active: 39.8 µM
C=C[C@H]1CN2CC[C@H]1C[C@@H]2CNS(=O)(=O)c1cccc(F)c1	inactive
O=C([C@H]1CN2CCC1C[C@@H]2Cn1cc(COc2ccccc2)nn1)N1CCOCC1 (stereo partly drawn)	inactive
O=C(Cc1ccccc1)N1CCCN(CCn2nc3n(c2=O)CCCC3)CC1	inactive
O=C1NC2(CCN(Cc3ccncc3)C2)OCc2ccccc21 (stereo not drawn)	inactive
COc1ccc(C(=O)NC[C@H]2C[C@@H]3CCN2C[C@@H]3c2cc(-c3ccc(N(C)C)cc3)nc(C)n2)cc1	active: 25.1 µM
COCC(=O)N1[C@H]2CC[C@@H]1c1cnc(-c3ccc(F)cc3)nc1C2	inconclusive: 89.1 µM [inhibitor, single point]
COc1ccccc1-c1cc([C@H]2CN3CC[C@H]2C[C@@H]3COC(=O)Nc2ccccc2)n(C)n1	inconclusive: 39.8 µM [inhibitor, full curve, poor fit]
CCN1CCN(C(=O)Cc2cccn2-c2ccc(F)cc2)CC1	inconclusive: 89.1 µM [inhibitor, single point]
Cc1nc(-c2cccs2)cc([C@H]2CN3CC[C@H]2C[C@@H]3CNC(=O)C2CCC2)n1	inconclusive: 50.1 µM [inhibitor, partial curve, poor fit]
COc1cccc(-c2cnc3[nH]cc(CC(=O)N4CCN(C)CC4)c3c2)c1	inconclusive: 126 µM [inhibitor, single point]
Cn1nc(-c2ccccc2)cc1[C@H]1CN2CC[C@H]1C[C@@H]2CNS(=O)(=O)Cc1ccccc1	active: 79.4 µM
O=C(C1CC1)N1C[C@H]2CN(Cc3cccnc3)C[C@@]2(C(=O)O)C1	inactive
CCOC(=O)[C@H]1CN(C(=O)C2CCCC2)[C@]2(C)C(=O)Nc3ccccc3[C@H]12	inconclusive: 39.8 µM [inhibitor, single point]
O=C(c1cnccn1)N1[C@H]2CC[C@@H]1c1cnc(-c3ccc(F)cc3)nc1C2	inconclusive: 50.1 µM [inhibitor, partial curve, poor fit]
CCCCc1cn(C[C@H]2C[C@@H]3CCN2C[C@@H]3C(=O)NCCNC(C)=O)nn1	inactive
Cc1nc(-c2ccc(N(C)C)cc2)cc([C@H]2CN3CC[C@H]2C[C@@H]3CNC(=O)c2ccccc2)n1	inconclusive: 15.8 µM [inhibitor, full curve, poor fit]
COc1ccccc1-c1cc([C@H]2CN3CC[C@H]2C[C@@H]3CNC(=O)C2CCCCC2)n(C)n1	inconclusive: 89.1 µM [inhibitor, single point]
O=C(Nc1cccc(C(F)(F)F)c1)OC[C@H]1C[C@@H]2CCN1C[C@@H]2c1cc(C2CCCC2)nc(-c2ccncc2)n1	active: 3.98 µM
COc1cc2c(cc1CCc1ccccc1)N(C(=O)c1ccnn1C)CC21CCN(C(C)=O)CC1	inconclusive: 79.4 µM [inhibitor, partial curve, poor fit]
c1ccc(CN2C[C@H]3CCNC[C@H]32)cc1	inconclusive: 56.2 µM [inhibitor, partial curve, poor fit]
